# Assay results reported in the supplement of paper PMC8728848.
# Some of the results follow.
# B1: FBG1 (Homo sapiens), Q9UK22 (protein)
# chain: MDGDGDPESVGQPEEASPEEQPEEASAEEERPEDQQEEEAAAAAAYLDELPEPLLLRVLAALPAAELVQACRLVCLRWKELVDGAPLWLLKCQQEGLVPEGGVEEERDHWQQFYFLSKRRRNLLRNPCGEEDLEGWCDVEHGGDGWRVEELPGDSGVEFTHDESVKKYFASSFEWCRKAQVIDLQAEGYWEELLDTTQPAIVVKDWYSGRSDAGCLYELTVKLLSEHENVLAEFSSGQVAVPQDSDGGGWMEISHTFTDYGPGVRFVRFEHGGQDSVYWKGWFGARVTNSSVWVEP
# Experiments:
# Experiment in all cases: glycan array binding signal (z-score within array); higher = stronger binding
# Conditions in all cases: glycan notation: IUPAC condensed, linker removed
# [1] = target: Neu5Ac(a2-3)Gal(b1-3)GlcNAc
# In short: (§1)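 Columns mapping to the same glycan were averaged after glycan names were converted to IUPAC-condensed notation. The data come from 3228 arrays in the Consortium for Functional Glycomics database, limited to those with an available protein sequence. Binding is reported as a within-array Z-score averaged across arrays of one protein sequence and across linkers.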
# [2] = target: Neu5Ac(a2-3)Gal(b1-3)[Fuc(a1-4)]GlcNAc
# In short: as §1
# [3] = target: Neu5Ac(a2-3)Gal(b1-3)[Neu5Ac(a2-3)Gal(b1-4)]GlcNAc
# In short: as §1
# [4] = target: Neu5Ac(a2-3)Gal(b1-3)[Neu5Ac(a2-6)]GalNAc
# In short: as §1
# Neu5Ac(a2-3)Gal(b1-4)Glc = target: Neu5Ac(a2-3)Gal(b1-4)Glc
# In short: as §1
# [5] = target: Neu5Ac(a2-3)Gal(b1-4)GlcNAc
# In short: as §1
# [6] = target: Neu5Ac(a2-3)Gal(b1-4)GlcNAc(b1-3)Gal(b1-4)GlcNAc
# In short: as §1
# [7] = target: Neu5Ac(a2-3)Gal(b1-4)GlcNAc(b1-3)Gal(b1-4)GlcNAc(b1-3)Gal(b1-4)GlcNAc
# In short: as §1
# [8] = target: Neu5Ac(a2-3)Gal(b1-4)GlcNAc6S
# In short: as §1
# [9] = target: Neu5Ac(a2-3)Gal(b1-4)[Fuc(a1-3)]GlcNAc
# In short: as §1
# [10] = target: Neu5Ac(a2-3)Gal(b1-4)[Fuc(a1-3)]GlcNAc(b1-3)Gal
# In short: as §1
# [11] = target: Neu5Ac(a2-3)Gal(b1-4)[Fuc(a1-3)]GlcNAc(b1-3)Gal(b1-4)GlcNAc
# In short: as §1
# [12] = target: Neu5Ac(a2-3)Gal(b1-4)[Fuc(a1-3)]GlcNAc(b1-3)Gal(b1-4)[Fuc(a1-3)]GlcNAc(b1-3)Gal(b1-4)[Fuc(a1-3)]GlcNAc
# In short: as §1
# [13] = target: Neu5Ac(a2-3)Gal(b1-4)[Fuc(a1-3)]GlcNAc6S
# In short: as §1
# [14] = target: Neu5Ac(a2-3)Gal6S(b1-4)GlcNAc
# In short: as §1
# Neu5Ac(a2-3)GalNAc = target: Neu5Ac(a2-3)GalNAc
# In short: as §1
# [15] = target: Neu5Ac(a2-3)[GalNAc(b1-4)]Gal(b1-4)Glc
# In short: as §1
# [16] = target: Neu5Ac(a2-3)[GalNAc(b1-4)]Gal(b1-4)GlcNAc
# In short: as §1
# [17] = target: Neu5Ac(a2-3)[Neu5Ac(a2-6)]GalNAc
# In short: as §1
# Neu5Ac(a2-6)Gal = target: Neu5Ac(a2-6)Gal
# In short: as §1
# Neu5Ac(a2-6)Gal(b1-4)Glc = target: Neu5Ac(a2-6)Gal(b1-4)Glc
# In short: as §1
# [18] = target: Neu5Ac(a2-6)Gal(b1-4)GlcNAc
# In short: as §1
# [19] = target: Neu5Ac(a2-6)Gal(b1-4)GlcNAc(b1-3)Gal(b1-4)GlcNAc
# In short: as §1
# [20] = target: Neu5Ac(a2-6)Gal(b1-4)GlcNAc(b1-3)Gal(b1-4)[Fuc(a1-3)]GlcNAc(b1-3)Gal(b1-4)[Fuc(a1-3)]GlcNAc
# In short: as §1
# [21] = target: Neu5Ac(a2-6)Gal(b1-4)GlcNAc6S
# In short: as §1
# Neu5Ac(a2-6)GalNAc = target: Neu5Ac(a2-6)GalNAc
# In short: as §1
# Neu5Ac(a2-8)Neu5Ac = target: Neu5Ac(a2-8)Neu5Ac
# In short: as §1
# [22] = target: Neu5Ac(a2-8)Neu5Ac(a2-3)Gal(b1-4)Glc
# In short: as §1
# [23] = target: Neu5Ac(a2-8)Neu5Ac(a2-3)[GalNAc(b1-4)]Gal(b1-4)Glc
# In short: as §1
# [24] = target: Neu5Ac(a2-8)Neu5Ac(a2-8)Neu5Ac
# In short: as §1
# [25] = target: Neu5Ac(a2-8)Neu5Ac(a2-8)Neu5Ac(a2-3)Gal(b1-4)Glc
# In short: as §1
# [26] = target: Neu5Ac(a2-8)Neu5Ac(a2-8)Neu5Ac(a2-3)[GalNAc(b1-4)]Gal(b1-4)Glc
# In short: as §1
# Neu5Ac(b1-6)GalNAc = target: Neu5Ac(b1-6)GalNAc
# In short: as §1
# [27] = target: Neu5Ac(b2-6)Gal(b1-4)GlcNAc
# In short: as §1
# [28] = target: Neu5Ac9Ac(a2-6)Gal(b1-4)GlcNAc
# In short: as §1
# [29] = target: Neu5Gc(a2-3)Gal(b1-3)GlcNAc
# In short: as §1
# [30] = target: Neu5Gc(a2-3)Gal(b1-3)[Fuc(a1-4)]GlcNAc
# In short: as §1
# Neu5Gc(a2-3)Gal(b1-4)Glc = target: Neu5Gc(a2-3)Gal(b1-4)Glc
# In short: as §1
# [31] = target: Neu5Gc(a2-3)Gal(b1-4)GlcNAc
# In short: as §1
# [32] = target: Neu5Gc(a2-3)Gal(b1-4)[Fuc(a1-3)]GlcNAc
# In short: as §1
# [33] = target: Neu5Gc(a2-6)Gal(b1-4)GlcNAc
# In short: as §1
# Neu5Gc(a2-6)GalNAc = target: Neu5Gc(a2-6)GalNAc
# In short: as §1
binder,measurement,setting,value
B1,glycan array binding signal (z-score),[1],-0.214
same,glycan array binding signal (z-score),[2],-0.23
same,glycan array binding signal (z-score),[3],-0.221
same,glycan array binding signal (z-score),[4],-0.247
same,glycan array binding signal (z-score),Neu5Ac(a2-3)Gal(b1-4)Glc,-0.031
same,glycan array binding signal (z-score),[5],-0.198
same,glycan array binding signal (z-score),[6],-0.231
same,glycan array binding signal (z-score),[7],-0.141
same,glycan array binding signal (z-score),[8],-0.229
same,glycan array binding signal (z-score),[9],-0.229
same,glycan array binding signal (z-score),[10],-0.239
same,glycan array binding signal (z-score),[11],-0.195
same,glycan array binding signal (z-score),[12],-0.231
same,glycan array binding signal (z-score),[13],-0.226
same,glycan array binding signal (z-score),[14],-0.226
same,glycan array binding signal (z-score),Neu5Ac(a2-3)GalNAc,0.111
same,glycan array binding signal (z-score),[15],-0.218
same,glycan array binding signal (z-score),[16],-0.217
same,glycan array binding signal (z-score),[17],-0.197
same,glycan array binding signal (z-score),Neu5Ac(a2-6)Gal,-0.199
same,glycan array binding signal (z-score),Neu5Ac(a2-6)Gal(b1-4)Glc,-0.208
same,glycan array binding signal (z-score),[18],-0.233
same,glycan array binding signal (z-score),[19],-0.161
same,glycan array binding signal (z-score),[20],-0.206
same,glycan array binding signal (z-score),[21],-0.197
same,glycan array binding signal (z-score),Neu5Ac(a2-6)GalNAc,0.442
same,glycan array binding signal (z-score),Neu5Ac(a2-8)Neu5Ac,-0.158
same,glycan array binding signal (z-score),[22],-0.238
same,glycan array binding signal (z-score),[23],-0.22
same,glycan array binding signal (z-score),[24],-0.248
same,glycan array binding signal (z-score),[25],-0.232
same,glycan array binding signal (z-score),[26],-0.239
same,glycan array binding signal (z-score),Neu5Ac(b1-6)GalNAc,-0.218
same,glycan array binding signal (z-score),[27],-0.263
same,glycan array binding signal (z-score),[28],0.325
same,glycan array binding signal (z-score),[29],-0.177
same,glycan array binding signal (z-score),[30],-0.265
same,glycan array binding signal (z-score),Neu5Gc(a2-3)Gal(b1-4)Glc,0.109
same,glycan array binding signal (z-score),[31],-0.201
same,glycan array binding signal (z-score),[32],-0.216
same,glycan array binding signal (z-score),[33],0.244
same,glycan array binding signal (z-score),Neu5Gc(a2-6)GalNAc,-0.24
